Experimental findings from the supplement of paper PMC4604168 (melanoma cell lines) are described below.

Molecules are shown by their SMILES. Some of the results follow. Repeats are few or missing, and single values can be far off.
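Note: cells treated in 1,536-well plates, then fixed and DAPI-stained, with nuclei counted from automated high-throughput microscope images.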

The test system of this assay is WM3526. The experiment in a line: cell count relative to DMSO control; melanoma cells; higher = more viable cells. The settings on record: library dose: standard library concentration; 72 h.
Take `N#CC[C@H](C1CCCC1)n1cc(-c2ncnc3[nH]ccc23)cn1` [ruxolitinib] + NC(=O)Nc1cc(-c2cccc(F)c2)sc1C(=O)N[C@H]1CCCNC1 [AZD7762] (first compound 5 µM, partner dose 0.1 µM): the cell count stood at 68.6%. In turn, `N#CC[C@H](C1CCCC1)n1cc(-c2ncnc3[nH]ccc23)cn1` [ruxolitinib] + O=C(Nc1cccc(Cl)c1)Nc1ncc(CCNc2ncnc3ccsc23)s1 [SNS314] (first compound 5 µM, partner dose 0.004 µM) registered a cell count of 50.5%.

In turn, `N#CC[C@H](C1CCCC1)n1cc(-c2ncnc3[nH]ccc23)cn1` [ruxolitinib] + CN(NC(=O)CC(=O)NN(C)C(=S)c1ccccc1)C(=S)c1ccccc1 [STA4783] (first compound 5 µM, partner dose 0.03 µM) had a cell count of 103%. In turn, `N#CC[C@H](C1CCCC1)n1cc(-c2ncnc3[nH]ccc23)cn1` [ruxolitinib] + O=C(CCCCCCC(=O)Nc1ccccc1)NO [vorinostat] (first compound 5 µM, partner dose 0.4 µM) registered a cell count of 88.1%. Under `Cc1cc(Nc2cc(N3CCN(C)CC3)nc(Sc3ccc(NC(=O)C4CC4)cc3)n2)n[nH]1` [Tozasertib] + OCCn1cc(-c2cnc3nnn(Cc4ccc5ncccc5c4)c3n2)cn1 [PF04217903] (first compound 0.03 µM, partner dose 5 µM) stands 80.2%. Turning to `N#CC[C@H](C1CCCC1)n1cc(-c2ncnc3[nH]ccc23)cn1` [ruxolitinib] + Cc1cc(N2CCOCC2)cc2[nH]c(-c3c(NC[C@@H](O)c4cccc(Cl)c4)cc[nH]c3=O)nc12 [BMS536924] (first compound 5 µM, partner dose 1 µM), the cell count was found to be 77.9%.
